Experimental findings from PubChem BioAssay AID1508623 (National Center for Advancing Translational Sciences (NCATS), 2021) are described below.

Hit rate of the full screen: of about 48,000 compounds, about 450 (0.94%) were called active. About 19% were inconclusive and are not listed. Calls follow the shape of the dose curve; as a rule, active = well fitted inhibition curve with a large enough effect; inconclusive = small, poorly fitted or top-dose-only effect; inactive = no such curve, though single readings can be large or run the other way. The list shows a part of the results.
Potency is read from the fitted curve at half-maximal effect.

A short description of this assay: Primary qHTS for Identification of Small Molecule Inhibitors of Huntingtin Promoter Activity. Also: nearly all actives have a fitted effect of over 50% in size. The note with it: HEK293 HTT promoter firefly luciferase reporter (activity 0% = vehicle and -100% = no light), 24 h; series mostly up to 57.5 µM; activity change, negative = inhibition: at the top concentration. The gist of the method: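 HEK293 Fluc reporter, 2,500 cells/well, 24 h pre-culture; cpds up to 57.5 uM final, 24 h 37 degrees C; Dual-Glo, 10 min RT; normalized vehicle = 0%, zero RLU = -100%.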
Background: Quantitative high-throughput screening tests each substance at several concentrations.
Take `COc1ccc(-c2onc(C)c2C)cc1S(=O)(=O)NCC1CCN(Cc2ccccc2F)CC1`: the “activity change, negative = inhibition” value is inactive: -28.7%.

With `Cc1ccc(Oc2c(C(F)(F)F)oc3cc(OCC(=O)NC4CCCCC4)ccc3c2=O)cc1`, the “activity change, negative = inhibition” value was inactive: -4.36%.

As to `CCCN1C(=O)C(O)(CC(=O)c2ccc(CC)cc2)c2ccccc21` (centres undefined), the “activity change, negative = inhibition” value is inactive: -18.8%.

Consider `COc1ccc(C(=O)N(Cc2sccc2C)C2CCS(=O)(=O)C2)cc1Cl` (centres undefined), for which the “activity change, negative = inhibition” value is inactive: -14%.

As to `CCN1CCN(C(=O)c2ccc3c(c2)N(Cc2ccc(Cl)cc2)C(=O)c2ccccc2S3(=O)=O)CC1`, the “activity change, negative = inhibition” value is inactive: -14.8%.

Turning to `O=C(NCc1ccc2c(c1)OCO2)c1ccc2c(c1)N(Cc1cccc(Cl)c1)C(=O)c1ccccc1S2`, the “activity change, negative = inhibition” value is inactive: -22.8%.

With `Cc1cccc(N2CCN(C(=O)C3CCN(S(=O)(=O)c4c(C)noc4/C=C/c4ccccc4F)CC3)CC2)c1C`, the “activity change, negative = inhibition” value was inactive: -17.9%.

In the case of `O=C(Cn1ncc2c([nH]c3ccccc32)c1=O)Nc1cc(F)ccc1F`, the “activity change, negative = inhibition” value is inactive: -5%.

For the compound `O=C(Nc1nnc(S(=O)(=O)N2CCCCCC2)s1)c1ccc(Br)cc1`, the “activity change, negative = inhibition” value was inactive: -8.7%.

For `CC(=O)c1ccc(NC2=NS(=O)(=O)c3ccccc32)cc1`, the “activity change, negative = inhibition” value is inactive: -0.0269%.

As to `Cc1cc(C)c(Cn2c3ccccc3c3cnn(CC(=O)NCCc4ccccc4)c(=O)c32)c(C)c1`, the “activity change, negative = inhibition” value is inactive: -15.6%.

In the case of `CCc1cccc(C)c1NS(=O)(=O)c1c(C(=O)N2CCCCCC2)c(C)n(C)c1C`, the “activity change, negative = inhibition” value is inactive: -0.0588%.

With `COc1ccc(Cl)cc1NC(=O)Cn1nnc2sc3c(c2c1=O)CCC(C(C)(C)C)C3` (centres undefined), the “activity change, negative = inhibition” value was inactive: -5.79%.

As to `CCOC(=O)c1c(Nc2cccc(O)c2)nnc(-c2ccccc2)c1-c1ccccc1`, the “activity change, negative = inhibition” value is inactive: -10.4%.

On to `Cc1ccc(NC(=O)Cn2cc(S(=O)(=O)c3ccc(F)cc3)c(=O)c3cc4c(cc32)OCO4)cc1`, for which the “activity change, negative = inhibition” value is inactive: -16.8%.

Turning to `Cc1ccc(NC(=O)CSc2nccn2C2CCCC2)cc1`, the “activity change, negative = inhibition” value was inactive: 9.36%.

Take `CCOc1ccccc1C1CC(=O)NC(C)=C1C(=O)OC1CCCCCC1` (centres undefined): the Potency was active: 31.6 µM.

Take `COc1cc(Cl)c(C)cc1NC(=O)CCCN1C(=O)C(c2ccccc2)Oc2cccnc21` (centres undefined): the “activity change, negative = inhibition” value was inactive: -35.7%.

For the compound `COCCNC(=O)Cn1c(=O)n(Cc2ccc(C(=O)NCCc3ccc(OC)c(OC)c3)cc2)c(=O)c2ccccc21`, the “activity change, negative = inhibition” value was inactive: -6.51%.

On to `Cc1cccc(Oc2nc3ccccn3c(=O)c2/C=C(\C#N)c2nc3ccccc3s2)c1C`, for which the “activity change, negative = inhibition” value is inactive: -1.69%.

As to `COc1ccc(-n2c3c(c(=O)[nH]c2=O)C(NC(C)=O)(C(F)(F)F)C(=O)N3)cc1` (centres undefined), the “activity change, negative = inhibition” value is inactive: -14.7%.

For the compound `COc1ccc(NC(=O)C2CCCN(S(=O)(=O)c3cn(C)cn3)C2)cc1Cl` (centres undefined), the “activity change, negative = inhibition” value is inactive: -29.4%.

`CC(C)(C)C(=O)Cn1c(=O)n(CCCCCC(=O)NCc2ccc3c(c2)OCO3)c(=O)c2sccc21`: the “activity change, negative = inhibition” value was inactive: -13.9%.

Regarding `CCCCn1cc(S(=O)(=O)c2ccc(CC)cc2)c(=O)c2cc(F)c(N3CCCC(C)C3)cc21` (centres undefined), the “activity change, negative = inhibition” value is inactive: -4.05%.

Regarding `Cc1ccc(C(=O)CSc2nc3cc(C(=O)NC4CCCC4)ccc3c(=O)n2CC2CCCO2)cc1` (centres undefined), the “activity change, negative = inhibition” value was inactive: 7.43%.

As to `CSc1cccc(NS(=O)(=O)c2ccc3[nH]cc(C(=O)N4CCCC4)c(=O)c3c2)c1`, the “activity change, negative = inhibition” value was inactive: 11.8%.

For the compound `COc1cc(OC)c(NC(=O)c2c(C)nn(-c3ccc(C)cc3)c2-n2cccc2)cc1Cl`, the “activity change, negative = inhibition” value is inactive: -7.78%.

For the compound `COc1ccc(C(=O)NCCn2cc(SCC(=O)Nc3ccccc3)c3ccccc32)cc1OC`, the “activity change, negative = inhibition” value is inactive: -20.9%.

In the case of `Cc1cc(C)cc(NC(=O)C2CCCN2S(=O)(=O)c2ccc3c(c2)C(C)(C)C(=O)N3C)c1` (centres undefined), the “activity change, negative = inhibition” value was inactive: -26.2%.

Consider `CCOC(=O)C1(C)C=C(Nc2ccc(OC)cc2)C(=O)N1c1ccccc1` (centres undefined), for which the “activity change, negative = inhibition” value was inactive: 2%.

Consider `COc1ccccc1NC(=O)c1oc2ccccc2c1NC(=O)c1c(F)cccc1F`, for which the “activity change, negative = inhibition” value was inactive: 7.16%.

For `Cc1cc(C)c(Cn2c3ccccc3c3cnn(CC(=O)NC4CCCCCC4)c(=O)c32)c(C)c1`, the “activity change, negative = inhibition” value was inactive: -11.1%.

Take `COc1ccc(Cn2cc(C(=O)c3ccc(Cl)cc3)c(=O)c3cc4c(cc32)OCO4)cc1`: the “activity change, negative = inhibition” value was inactive: -25%.

On to `CC(C)(Sc1cc(C(C)(C)C)c(O)c(C(C)(C)C)c1)Sc1cc(C(C)(C)C)c(O)c(C(C)(C)C)c1`, for which the activity change, negative = inhibition result is “inactive”.

Regarding `CCc1ccc(Nc2nn3c(=O)c4cc5c(cc4nc3s2)OCO5)cc1`, the “activity change, negative = inhibition” value is inactive: 1.64%.

For the compound `Cc1ccc(-n2nc3c(N4CCC(C(=O)N5CCC(C)CC5)CC4)nnc(C)c3c2C)cc1`, the “activity change, negative = inhibition” value was inactive: -16.8%.

For the compound `O=C(Nc1cccc(Cl)c1Cl)c1cc(S(=O)(=O)N2CCC3(CC2)OCCO3)ccc1F`, the “activity change, negative = inhibition” value is inactive: -22.4%.

On to `CC(C)Cn1c(=O)c2sccc2n2c(CCCC(=O)NCC(C)c3ccccc3)nnc12` (centres undefined), for which the “activity change, negative = inhibition” value is inactive: -20.8%.

Take `O=C(NCCN1CCN(c2ccccc2F)CC1)C1COc2ccccc2C1` (centres undefined): the “activity change, negative = inhibition” value was inactive: -18.4%.

Take `O=C(CSc1oc(-c2ccccc2)nc1S(=O)(=O)c1ccc(Br)cc1)NC1CCCCC1`: the “activity change, negative = inhibition” value was inactive: -16.5%.

For `COc1ccc(CNC(=O)c2ccc3c(c2)N(Cc2ccccc2F)C(=O)c2ccccc2S3=O)cc1` (centres undefined), the “activity change, negative = inhibition” value was inactive: -8.58%.

On to `CC(=O)Nc1nonc1-c1nnc(SCc2ccccc2C)n1C`, for which the “activity change, negative = inhibition” value was inactive: -28%.

`CCOc1nc(NC(=O)NS(=O)(=O)Oc2cccc(F)c2)nc(-c2ccccc2)n1`: the “activity change, negative = inhibition” value was inactive: 45.9%.

In the case of `COc1cccc(-c2ccc3c(N)c(C(=O)Nc4ccc(Cl)cc4F)sc3n2)c1`, the “activity change, negative = inhibition” value was inactive: -11.4%.

As to `CCc1ccccc1NC(=O)Cc1ccc(-n2c(C)nc3cccnc32)cc1`, the “activity change, negative = inhibition” value is inactive: -24.4%.

Take `COc1ccc(OC)c(NC(=O)Cc2c(C(=O)O)[nH]c3ccc(Cl)cc23)c1`: the “activity change, negative = inhibition” value is inactive: -11.1%.

Consider `Cc1ccc(C2=Nc3ccccc3N(CC(=O)NCc3ccc(Cl)cc3)C(=O)C2)cc1C`, for which the “activity change, negative = inhibition” value was inactive: 39.7%.

As to `O=C(c1ccc(Cl)cc1)N1CCCCC1CCN1CCOCC1` (centres undefined), the “activity change, negative = inhibition” value was inactive: -14.1%.

Take `Cc1ccc(C)c(N2CCN(C(=O)c3cc4c(=O)n(Cc5cccnc5)ccc4nc3C)CC2)c1`: the “activity change, negative = inhibition” value is inactive: -16%.

With `COc1ccc(NC(=O)CSc2nc3ccccc3n2CC(=O)N2CCCC(C)C2)cc1` (centres undefined), the “activity change, negative = inhibition” value was inactive: -17.7%.

Turning to `CCn1c(=O)c2cc(C(=O)Nc3cc(C)c(Cl)cc3OC)sc2c2ccccc21`, the “activity change, negative = inhibition” value was inactive: 0.871%.

As for `Cc1cccc(C(=O)Nc2c(-c3ccc(F)cc3)nc3ccccn23)c1`, the “activity change, negative = inhibition” value is inactive: -18.8%.

With `Cc1cc(C)n(-c2nc3cc(Cl)c(Cl)cc3nc2Nc2ccc(F)cc2C)n1`, the “activity change, negative = inhibition” value is inactive: -14.4%.

On to `CC(=O)N(Cc1cccnc1)c1nc2c(C)cc(C)cc2s1`, for which the “activity change, negative = inhibition” value is inactive: -25.4%.

Turning to `COc1ccc(CNC(=O)c2cc(-c3cccs3)nc3ccccc23)c(OC)c1`, the “activity change, negative = inhibition” value is inactive: -4.26%.

On to `CCOC(=O)c1sc(NC(=O)c2nc3ncccn3n2)c(C(=O)OC(C)C)c1C`, for which the “activity change, negative = inhibition” value was inactive: -20.9%.

Turning to `CC1CCc2c(sc3nnn(Cc4ccccc4)c(=O)c23)C1` (centres undefined), the “activity change, negative = inhibition” value was inactive: -20.1%.

For the compound `Cc1ccc(-c2nc3ccccn3c2Nc2c(C)cccc2C)o1`, the “activity change, negative = inhibition” value was inactive: -29.8%.

`Cc1ccc(NS(=O)(=O)c2ccc3[nH]c4c(c3c2)CCCC4)c(C)c1`: the “activity change, negative = inhibition” value is inactive: -20.9%.
